The structures appear in SMILES notation. About 540 (0.36%) of roughly 150,000 compounds showed an effect of 50% or more. The list shows a part of the results.

For the assay, the system named is Plasmodium falciparum. In words: Primary screen in NF54 nanoGlo assay, in single point, at 2uM, 72h; a lower Z score goes with more inhibition. In kind it is functional, Erythrocyte. The following applies: timepoint 72 hour.
With `N#Cc1ccc(C(=O)NCc2nnc(N)s2)cn1`, the “% Inhibition” value is reported as -8% and the Z score is 1.36.
In the same order, the values of `CNc1cc([C@H]2C[C@H](NC(=O)c3c(C)nc4ccc(Cl)cn34)C2)ncn1` are -14% and 2.61.
For `CCc1ccc([C@H](COC)NS(C)(=O)=O)o1` the same measures were -1% and 0.13.
In the same order, the values of `Cc1ccncc1C(=O)NCc1cccnc1Oc1ccc(F)cc1F` are -5% and 1.05.
As for `COc1ccc(NC(=O)COC(=O)[C@@H]2CCCCN2S(=O)(=O)c2cccc3c2N=S=N3)cc1`, the “% Inhibition” value is 0% and the Z score is -0.05.
For `CCOC(=O)c1cn(C)c(C(=O)OC)c1N` the same measures were 6% and -0.68.
In the same order, the values of `CCOc1nc(-c2cccc(C(F)(F)F)c2)n(-c2ccc(NC(=O)c3ccc(OC)cc3)cc2)n1` are -7% and 0.78.
In the same order, the values of `Cc1ccc(CNC(=O)[C@@H](C)C2CCN(C(=O)c3ccc4nc(-c5ccccc5)oc4c3)CC2)o1` are -4% and 0.46.
For `COCCOc1nc(-c2cccc(C(F)(F)F)c2)n(-c2ccc(NC(=O)c3ccc(OC)cc3OC)cc2)n1`, the “% Inhibition” value is given as -4% and the Z score amounted to 0.54.
For `O=C(COC1CCCC1)NCc1nnc2ccccn12`, the “% Inhibition” value is recorded as -5% and the Z score was determined as 1.02.
For `COc1ccc(-c2cccc3c2O[C@@H](CN)C3)nn1` the same measures were -1% and 0.11.
In the same order, the values of `CC(C)[C@H](CNC(=O)c1cccc(-n2cncn2)c1)N1CCN(C)CC1` are -1% and 0.1.
As for `O=C(NCc1ccc[nH]1)C(=O)Nc1cc(F)cc(Cl)c1`, the “% Inhibition” value is -7% and the Z score is given as 1.29.
In the same order, the values of `CCn1cc(C(=O)Nc2cn(C)nc2C(=O)NCc2ccco2)cn1` are -6% and 0.87.
For `CC(C)(C)NS(=O)(=O)c1cnc(NS(=O)(=O)c2cccc(F)c2)s1` the same measures were 17% and -1.95.
In the same order, the values of `O=C(Nc1cnn(-c2ncc(N3CCCCC3)cn2)c1)NC1CCCC1` are -18% and 3.01.
Regarding `COc1ccc([C@H](CNC(=O)c2ccco2)N2CCCCC2)cc1`, the “% Inhibition” value is on record as -10% and the Z score was found to be 1.33.
In the same order, the values of `C#CCN(CC#CC)CC(=O)NC1CCCC1` are -3% and 0.55.
In the same order, the values of `Cc1cnc(C(C)(C)NCC(=O)N2CCCCCC2)s1` are -6% and 0.77.
For `C[C@H]1CCCCN1C(=O)CCNc1ccncc1Cl` the same measures were -4% and 0.34.
Consider `COc1cc(NC(=O)N2CCN(c3ccncc3)[C@@H](C)C2)n(C)n1`, for which the “% Inhibition” value is on record as -5% and the Z score is recorded as 0.61.
For `CC(F)(F)C1(CS(=O)(=O)NCc2ccco2)CCOCC1` the same measures were 2% and -0.25.
For `O=C(NCc1c(O)cccc1F)N[C@H]1CCO[C@@H]1c1cccnc1` the same measures were 0% and 0.05.
For `Cc1ccc(NC(=O)c2ccc(N3C(=O)CCS3(=O)=O)cc2Cl)c(C)c1` the same measures were -9% and 1.17.
As to `CC(C)C(=O)NCc1nc([C@H]2C[C@@H](c3ccccc3)N3CCC[C@H]23)no1`, the “% Inhibition” value stood at 0% and the Z score is 0.04.
In the same order, the values of `COCCCNC(=O)c1cnc2ccc(Cl)cc2c1O` are -6% and 1.14.
In the same order, the values of `C[C@H](NCCN(C)C(=O)OC(C)(C)C)c1cn(C2COC2)nn1` are 0% and -0.04.
For the compound `CCS(=O)(=O)N1CCC[C@H](C(=O)Nc2ccc(C)c(N3CCCC3=O)c2)C1`, the “% Inhibition” value is reported as -5% and the Z score amounted to 0.85.
For `Cc1nn(-c2ccc3nncn3n2)c2c1[C@@H](c1c(Cl)cccc1Cl)CC(O)=N2` the same measures were -7% and 1.27.
In the same order, the values of `O=C(Nc1cccc(S(=O)(=O)N2CCCCC2)c1)c1ccc2c(c1)OCO2` are -9% and 1.51.
Take `Fc1ccc2c(c1Br)CN(CCc1c[nH]nn1)CC2`: the “% Inhibition” value is recorded as -5% and the Z score was found to be 0.69.
Consider `c1cn(CCCC2CCN(Cc3nnc4n3CCCC4)CC2)cn1`, for which the “% Inhibition” value turned out to be 33% and the Z score is given as -3.71.
For `COc1cc(OC)cc(C(=O)N[C@H]2CCN(C(N)=O)C2)c1` the same measures were -7% and 0.95.
In the same order, the values of `O=C(COc1ccc(-c2ccccc2)cc1Cl)Nc1nncs1` are -7% and 1.13.
As for `C[C@H]1CCN(c2nc(-c3ccccn3)nc3c2CCC3)C1`, the “% Inhibition” value was 90% and the Z score was -12.13.
In the same order, the values of `Cc1ccc(N2CCCC2=O)c(C(=O)N[C@H]2COc3ccccc3C2=O)c1` are -3% and 0.43.
For the compound `CCc1cccc(OC2CN(c3cc(N)ncn3)C2)c1`, the “% Inhibition” value was 4% and the Z score is given as -0.56.
Regarding `O=C(c1ccc(-c2cnccn2)cc1)N1CCCCC1`, the “% Inhibition” value is reported as -17% and the Z score was 1.88.
For `CCC/C=C/c1ncc(F)c(N2CCOCC2)n1`, the “% Inhibition” value is 4% and the Z score was -0.8.
In the same order, the values of `CCN(CC)C(=O)C[C@@H]1c2nc(NC(=O)c3ccco3)sc2C[C@@H]2[C@](C)(CO)[C@H](O)CC[C@]21C` are -4% and 0.68.
On to `COC[C@@]12CCN(C(=O)C3CCC3)C[C@@H]1CN(S(C)(=O)=O)C2`, for which the “% Inhibition” value is on record as -11% and the Z score is reported as 1.32.
Regarding `CCS(=O)(=O)N1CCCC(C(=O)N[C@@H](CO)CC(C)C)C1` (some centres undefined), the “% Inhibition” value is listed as -3% and the Z score is on record as 0.35.

The % Inhibition is the relative decrease from the control value, in per cent.

These data come from ChEMBL document CHEMBL4888484, “Replenishing the malaria drug discovery pipeline: Screening and hit evaluation of the MMV Hit Generation Library 1 (HGL1) against asexual blood stage Plasmodium falciparum ,using a nano luciferase reporter read-out” (2022).
